# Assay results: PubChem BioAssay AID686979 (National Center for Advancing Translational Sciences (NCATS), 2013)
# Several values for one entry are separate records, joined by “and”; a condition that tells them apart may be missing. Equal entries are not always repeated. Out of some 420,000 compounds screened, about 50,000 (12%) were called active. Inconclusive results, whose numbers are uncertain, are shown with a selection of clear calls. The call rests on the fitted dose curve; in most records, active means well fitted inhibition curve with a large enough effect; inconclusive means small, poorly fitted or top-dose-only effect; inactive means flat fitted curve, though single readings scatter. Potencies beside an inconclusive call are fits to weak or partial responses and may not hold up.
# Assay: qHTS for Inhibitors of human tyrosyl-DNA phosphodiesterase 1 (TDP1): qHTS in cells in presence of CPT; further: nearly all actives have a fitted effect of over 55% in size
# Details: chicken DT40 Tdp1-/-;hTDP1 cells + 20 nM CPT, ATP luminescence, 48 h; activity change, negative = growth inhibition: at 46.2 µM (top of the series)
# How it was run: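 Cell growth measured by CellTiter-Glo luminescence after a minimum 48 h, 37 C compound exposure with 20 nM CPT in Tdp1-knockout DT40 cells stably expressing hTDP1, seeded 400/well; qHTS titration format.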
# On the % scale 0 is the no-effect control and ±100 the full control effect; potency means the concentration at half of the fitted maximal effect; tags describe the fitted curve by direction and shape.
Structure (SMILES),"activity change, negative = growth inhibition",Potency
O=C(Nc1cccc(-c2cn3cccnc3n2)c1)c1cc(Br)ccc1Cl,inactive: -21.1%,–
CCOC(=O)c1[nH]c(C)c(C(=O)NC(CC)Cc2ccccc2)c1C (configuration not stated),–,"inconclusive: 4.61 µM [inhibitor, single point]"
O=C(C[n+]1cc(-c2ccc(F)cc2)n2c1CCC2)Nc1nc(-c2ccccc2)cs1,–,"inconclusive: 29.1 µM [inhibitor, single point]"
CCOc1nc(N2CCOCC2)nc(N2CCOCC2)n1,inactive: 3.74%,–
CC(=O)c1ccc(N(C(=O)CNC(=O)c2ccco2)C(C(=O)NC2CCCC2)c2cccnc2)cc1 (configuration not stated),inactive: 5.68%,–
CC1CCCC(NC(=O)Cn2cc3c(n2)CCCCC3)C1C (configuration not stated),–,"inconclusive: 23.1 µM [inhibitor, single point]"
Cc1cc(F)c(F)c(C(=O)N2C(C)CCCC2C)c1Cl (configuration not stated),–,"inconclusive: 29.1 µM [inhibitor, single point]"
Cc1ccc(/C=N/NC(=O)c2ccccn2)s1,–,"inconclusive: 29.1 µM [inhibitor, single point]"
CC(/C=N/NC(=O)c1ccncc1)=C\c1ccc(C(C)C)cc1,–,"inconclusive: 18.4 µM [inhibitor, single point]"
Cc1ccc2c(c1)N(CC(=O)NCCc1ccc(Cl)cc1)C(=O)c1cccnc1O2,–,"inconclusive: 4.61 µM [inhibitor, full curve, poor fit] and inconclusive: 18.4 µM [inhibitor, partial curve]"
COc1ccc(C/C(C)=N/NC(=O)C2COc3ccccc3O2)cc1 (configuration not stated),inactive: -24.2%,–
N=C1C(=O)OCC1c1cc(Cl)ccc1NC(=O)Nc1ccccc1 (configuration not stated),–,"inconclusive: 23.1 µM [inhibitor, single point]"
Cn1c(-n2cccc2)c(-c2c(-c3ccccc3)[nH]c3c2c(=O)[nH]c(=O)n3C)c(=O)[nH]c1=O,–,"inconclusive: 29.1 µM [inhibitor, single point]"
CN(C(=O)COC(=O)c1c[nH]c2ccccc12)c1ccccc1,inactive: -9.82%,–
CNC(=O)CCC(=O)Nc1ccc(C(=O)OC)cc1,inactive: 3.24%,–
COC(=O)NCC(c1ccc2c(c1)OCO2)N1CCN(c2ccc(OC)cc2)CC1 (configuration not stated),–,"inconclusive: 10.3 µM [inhibitor, partial curve]"
CC(=O)Nc1ccc(NC2=C(Cl)C(=O)c3ccccc3C2=O)cc1,–,"inconclusive: 18.4 µM [inhibitor, single point]"
COc1ccc(-c2nn(-c3ccccc3)cc2/C=N/Nc2ccc(S(N)(=O)=O)cc2[N+](=O)[O-])cc1OC,inactive: -25.5%,–
CC1=C(C(=O)OCc2ccccc2)C(c2ccsc2)NC(=O)N1C (configuration not stated),–,"inconclusive: 29.1 µM [inhibitor, partial curve, poor fit]"
O=C(NCCCO)c1c(O)c2cccc3c2n(c1=O)CCC3,–,"inconclusive: 8.2 µM [inhibitor, partial curve]"
C/C=C(\C)C(=O)NCCN1C2=NC[C@H](Cc3ccccc3)N2C[C@@H]1Cc1ccc(OC)cc1,–,"inconclusive: 29.1 µM [inhibitor, single point]"

Structure (SMILES),"activity change, negative = growth inhibition",Potency
O=C(Cc1nc2ccccc2[nH]1)c1ccc([N+](=O)[O-])cc1,–,"inconclusive: 18.4 µM [inhibitor, partial curve]"
COc1cc(C(=O)Nn2c(CC(C)C)nc3ccccc3c2=O)cc(OC)c1OC,–,"inconclusive: 13 µM [inhibitor, single point]"
O=C(CNS(=O)(=O)c1c(Cl)cccc1Cl)OCC(=O)c1ccc[nH]1,inactive: 6.44%,–
COC(=O)c1ccccc1S(=O)(=O)N1CCC(C(=O)N(C)CCOc2ccccc2)CC1,–,"inconclusive: 7.31 µM [inhibitor, partial curve]"
O=C(NCc1cc(Cl)cc(Cl)c1)c1ccc2sc([C@H]3C[C@H](O)[C@@H](CO)O3)nc2c1,–,active: 20.6 µM
COc1ccc(C(=O)NCc2ccc3c(c2)OCO3)c(OC)c1,–,"inconclusive: 29.1 µM [inhibitor, single point]"
CCCCc1nnc(NC(=O)C2CCN(c3ncnc4sc(C)c(C)c34)CC2)s1,–,"inconclusive: 14.6 µM [inhibitor, partial curve, poor fit]"
CCC1CCCCN1C(=O)C1CC(c2cc(Cl)c(OC)cc2OC)=NO1 (configuration not stated),–,"inconclusive: 23.1 µM [inhibitor, partial curve]"
CCOC(=O)CSc1nc2sc3c(c2c(=O)n1-c1ccccc1)CC(C(C)C)OC3 (configuration not stated),–,"inconclusive: 20.6 µM [inhibitor, partial curve]"
COc1cccc(CNCCSc2nnnn2C)c1OCc1ccccc1F,–,"inconclusive: 16.4 µM [inhibitor, single point]"
CN(CC(=O)Nc1ccc(Cl)c(C(F)(F)F)c1)C(=O)CCCNC(=O)c1ccc(Cl)cc1,–,active: 20.6 µM
O=C(NCc1ccco1)C1CC(O)CN1C(=O)Nc1ccccc1 (configuration not stated),inactive: -0.388%,–
COc1ccc(C2CC(c3ccccc3F)=NN2c2ccc(S(N)(=O)=O)cc2)cc1 (configuration not stated),–,"inconclusive: 9.2 µM [inhibitor, partial curve, poor fit]"
CCCCOC(=O)c1cccc(NC(=O)c2cc3ccccc3o2)c1,–,active: 13 µM
CCOc1ccc(C(=O)Nc2cccc(OCc3cc(=O)n4cc(C)sc4n3)c2)cc1,inactive: -8.62%,–
O=C(Nc1ccc(Cl)cc1F)c1cc(S(=O)(=O)NCc2ccc3c(c2)OCO3)ccc1F,–,"inconclusive: 32.6 µM [inhibitor, single point]"
O=[N+]([O-])c1ccc(Cl)c(S(=O)(=O)/N=C(/c2ccccc2)N2CCOCC2)c1,inactive: -0.948%,–
Cc1cc(C(=O)N/N=C/c2cc(Br)ccc2OC(=O)c2ccccc2Cl)n[nH]1,–,active: 5.8 µM
Cc1ccsc1/C=N/Nc1nc(Cl)c(Cl)cc1Cl,–,"inconclusive: 23.1 µM [inhibitor, single point]"
CCCCn1cc(S(=O)(=O)c2cccc(C)c2)c(=O)c2cc(F)c(N3CCOCC3)cc21,–,"inconclusive: 25.9 µM [inhibitor, single point]"
CC(C)C[C@@H](CNCC(=O)[C@H](CC(C)C)NC(=O)c1[nH]cnc1C(=O)N[C@H](CN)CC(C)C)NC(=O)c1nc[nH]c1C(=O)N[C@@H](CC(=O)O)C(=O)O,inactive: -20.6%,–
